Assay results reported in the supplement of paper PMC4967469.

How the values were obtained:
Test in all cases: Viability of human cancer cell lines after 72 h of drug (GDSC screen)
[1] = compound: CC(=O)c1c(C)c2cnc(Nc3ccc(N4CCNCC4)cn3)nc2n(C2CCCC2)c1=O [PD-0332991]
Description: (§1)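 Human cancer cell lines in 384-well plates, medium with 10% serum, drug for 72 h over a 256-fold dose range (nine 2-fold or five 4-fold steps up to the top dose). Adherent lines were fixed and stained with the nucleic acid dye Syto60, suspension lines read with resazurin; signal relative to control wells, capped at 0 and 100%. One two-parameter sigmoid per drug and line, fitted in a mixed model over all curves with the slope shared within a line.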

[2] = compound: COc1cc2c(Nc3ccc(NC(=O)c4ccccc4)cc3)ncnc2cc1OCCCN1CCOCC1 [ZM-447439]; conditions: top dose inferred
Description: as §1

[3] = compound: Cn1cnc2c(F)c(Nc3ccc(Br)cc3Cl)c(C(=O)NOCCO)cc21 [AZD6244]; conditions: screen: GDSC drug entry 1062
Description: as §1

Cell Line | AUC [1] | IC50 [1] [µM] | AUC [2] | IC50 [2] [µM] | AUC [3] | IC50 [3] [µM]
MOLP-8 (myeloma, suspension, top dose 4 µM) | 0.92 | > 4 | 0.964 | > 4 | 0.965 | > 4
MOLT-4 (lymphoblastic leukaemia, suspension, top dose 4 µM) | 0.28 | 0.0687 | 0.754 | 1.13 | 0.958 | > 4
MOLT-13 (T-cell lymphoblastic leukaemia, suspension, top dose 4 µM) | 0.373 | 0.117 | 0.716 | 0.932 | 0.513 | 0.269
MOLT-16 (T-cell lymphoblastic leukaemia, suspension, top dose 4 µM) | 0.488 | 0.234 | 0.653 | 0.601 | 0.939 | > 4
MONO-MAC-6 (acute myeloid leukaemia, suspension, top dose 4 µM) | 0.891 | > 4 | 0.772 | 1.63 | 0.969 | > 4
MPP-89 (mesothelioma, adherent, top dose 4 µM) | 0.924 | > 4 | 0.981 | > 4 | 0.961 | > 4
MRK-nu-1 (breast, suspension, top dose 4 µM) | 0.969 | > 4 | 0.962 | > 4 | 0.97 | > 4
MS-1 (small cell lung carcinoma, suspension, top dose 4 µM) | 0.991 | > 4 | 0.991 | > 4 | 0.991 | > 4
MSTO-211H (mesothelioma, adherent, top dose 4 µM) | 0.742 | 1.14 | 0.88 | 3.47 | 0.891 | 3.88
MY-M12 (leukaemia, suspension, top dose 4 µM) | 0.78 | 1.87 | 0.829 | 2.95 | 0.98 | > 4
MZ1-PC (pancreas, adherent, top dose 4 µM) | 0.735 | 1.4 | 0.896 | > 4 | 0.811 | 2.79
MZ2-MEL (melanoma, adherent, top dose 4 µM) | 0.426 | 0.151 | 0.821 | 2.87 | 0.962 | > 4
MZ7-mel (melanoma, adherent, top dose 4 µM) | 0.963 | > 4 | 0.987 | > 4 | 0.777 | 1.67
Mo-T (hairy cell leukaemia, suspension, top dose 4 µM) | 0.452 | 0.185 | 0.934 | > 4 | 0.983 | > 4
NALM-6 (B-cell leukaemia, suspension, top dose 4 µM) | 0.832 | 2.01 | 0.644 | 0.58 | 0.973 | > 4
NAMALWA (Burkitt lymphoma, suspension, top dose 4 µM) | 0.954 | > 4 | 0.973 | > 4 | 0.981 | > 4
NB1 (neuroblastoma, semi-adherent, top dose 4 µM) | 0.836 | 3.04 | 0.897 | > 4 | 0.984 | > 4
NB5 (neuroblastoma, adherent, top dose 4 µM) | 0.843 | 2.9 | 0.816 | 2.25 | 0.808 | 2.1
NB6 (neuroblastoma, adherent, top dose 4 µM) | 0.72 | 1.23 | 0.9 | > 4 | 0.983 | > 4
NB7 (neuroblastoma, adherent, top dose 4 µM) | 0.986 | > 4 | 0.92 | > 4 | 0.986 | > 4

Cell Line | AUC [1] | IC50 [1] [µM] | AUC [2] | IC50 [2] [µM] | AUC [3] | IC50 [3] [µM]
NB10 (neuroblastoma, adherent, top dose 4 µM) | 0.727 | 1.08 | 0.908 | > 4 | 0.903 | > 4
NB12 (neuroblastoma, adherent, top dose 4 µM) | 0.908 | > 4 | 0.947 | > 4 | 0.978 | > 4
NB13 (neuroblastoma, adherent, top dose 4 µM) | 0.915 | > 4 | 0.917 | > 4 | 0.989 | > 4
NB14 (neuroblastoma, adherent, top dose 4 µM) | 0.507 | 0.262 | 0.702 | 0.888 | 0.986 | > 4
NB17 (neuroblastoma, adherent, top dose 4 µM) | 0.9 | > 4 | 0.85 | 3.74 | 0.984 | > 4
NB69 (neuroblastoma, adherent, top dose 4 µM) | 0.436 | 0.171 | 0.874 | 3.14 | 0.705 | 0.872
NB(TU)1-10 (neuroblastoma, adherent, top dose 4 µM) | 0.991 | > 4 | 0.989 | > 4 | 0.993 | > 4
NB-4 (acute myeloid leukaemia, suspension, top dose 4 µM) | 0.485 | 0.23 | 0.805 | 1.59 | 0.938 | > 4
NCC010 (kidney, adherent, top dose 4 µM) | 0.779 | 1.76 | 0.929 | > 4 | 0.986 | > 4
NCC021 (kidney, adherent, top dose 4 µM) | 0.938 | > 4 | 0.977 | > 4 | 0.98 | > 4
NCI-H23 (lung adenocarcinoma, adherent, top dose 4 µM) | 0.862 | 3.37 | 0.931 | > 4 | 0.943 | > 4
NCI-H28 (mesothelioma, adherent, top dose 4 µM) | 0.809 | 2.94 | 0.918 | > 4 | 0.938 | > 4
NCI-H64 (small cell lung carcinoma, suspension, top dose 4 µM) | 0.989 | > 4 | 0.969 | > 4 | 0.996 | > 4
NCI-H69 (small cell lung carcinoma, suspension, top dose 4 µM) | 0.986 | > 4 | 0.937 | > 4 | 0.986 | > 4
NCI-H82 (small cell lung carcinoma, suspension, top dose 4 µM) | 0.977 | > 4 | 0.867 | 3.29 | 0.972 | > 4
NCI-H146 (small cell lung carcinoma, suspension, top dose 4 µM) | 0.983 | > 4 | 0.964 | > 4 | 0.99 | > 4
NCI-H187 (small cell lung carcinoma, suspension, top dose 4 µM) | 0.988 | > 4 | 0.985 | > 4 | 0.983 | > 4
NCI-H209 (small cell lung carcinoma, suspension, top dose 4 µM) | 0.715 | 1.07 | 0.84 | 3.04 | 0.963 | > 4
NCI-H211 (small cell lung carcinoma, adherent, top dose 4 µM) | 0.917 | > 4 | 0.855 | 3.05 | 0.987 | > 4
NCI-H226 (lung squamous cell carcinoma, adherent, top dose 4 µM) | 0.919 | > 4 | 0.918 | > 4 | 0.942 | > 4

Cell Line | AUC [1] | IC50 [1] [µM] | AUC [2] | IC50 [2] [µM] | AUC [3] | IC50 [3] [µM]
NCI-H322M (lung adenocarcinoma, suspension, top dose 4 µM) | 0.971 | > 4 | 0.982 | > 4 | 0.973 | > 4
NCI-H345 (small cell lung carcinoma, suspension, top dose 4 µM) | 0.99 | > 4 | 0.987 | > 4 | 0.986 | > 4
NCI-H446 (small cell lung carcinoma, semi-adherent, top dose 4 µM) | 0.985 | > 4 | 0.883 | > 4 | 0.986 | > 4
NCI-H460 (large cell lung carcinoma, adherent, top dose 4 µM) | 0.807 | 1.81 | 0.872 | 3.2 | 0.817 | 1.97
NCI-H508 (large intestine, semi-adherent, top dose 4 µM) | 0.913 | > 4 | 0.937 | > 4 | 0.654 | 0.9
NCI-H510A (small cell lung carcinoma, semi-adherent, top dose 4 µM) | 0.99 | > 4 | 0.92 | > 4 | 0.908 | > 4
NCI-H520 (lung squamous cell carcinoma, adherent, top dose 4 µM) | 0.626 | 0.562 | 0.917 | > 4 | 0.962 | > 4
NCI-H522 (lung adenocarcinoma, adherent, top dose 2 µM) | 0.98 | > 2 | 0.957 | > 2 | 0.935 | > 2
NCI-H524 (small cell lung carcinoma, suspension, top dose 4 µM) | 0.983 | > 4 | 0.783 | 1.5 | 0.988 | > 4
NCI-H526 (small cell lung carcinoma, suspension, top dose 4 µM) | 0.99 | > 4 | 0.893 | > 4 | 0.987 | > 4
NCI-H596 (lung adenocarcinoma, adherent, top dose 4 µM) | 0.982 | > 4 | 0.975 | > 4 | 0.982 | > 4
NCI-H630 (large intestine, adherent, top dose 4 µM) | 0.941 | > 4 | 0.976 | > 4 | 0.927 | > 4
NCI-H647 (non-small cell lung carcinoma, adherent, top dose 4 µM) | 0.945 | > 4 | 0.894 | > 4 | 0.953 | > 4
NCI-H650 (lung adenocarcinoma, adherent, top dose 4 µM) | 0.871 | > 4 | 0.963 | > 4 | 0.984 | > 4
NCI-H661 (large cell lung carcinoma, adherent, top dose 4 µM) | 0.809 | 2.65 | 0.892 | > 4 | 0.956 | > 4
NCI-H720 (lung carcinoid, suspension, top dose 4 µM) | 0.992 | > 4 | 0.818 | 2.01 | 0.992 | > 4
NCI-H727 (lung carcinoid, adherent, top dose 4 µM) | 0.9 | > 4 | 0.892 | > 4 | 0.864 | > 4
NCI-H747 (large intestine, adherent, top dose 4 µM) | 0.704 | 1.08 | 0.756 | 1.65 | 0.569 | 0.403
NCI-H810 (large cell lung carcinoma, adherent, top dose 4 µM) | 0.988 | > 4 | 0.922 | > 4 | 0.988 | > 4
NCI-H835 (lung carcinoid, suspension, top dose 4 µM) | 0.983 | > 4 | 0.983 | > 4 | 0.989 | > 4

Lines with a small IC50 respond at low doses; a fit beyond the top or the lowest dose is shown as a bound at that dose. AUC, from the same fit, is the share of area under the viability curve across the 256-fold dose range; values near 1 show little effect. For part of these data: A top dose marked as inferred is not printed in the source and was worked back from the curve model. For part of these data: Drugs with an entry number were screened twice under separate entries, and the two screens often disagree.
